# Measured values: article PMC4336329 (PLoS ONE, 2015)
# Screen size: about 310,000 compounds; about 2,200 (0.71%) showed an effect of 50% or more. The effect is printed as a negative number. The list shows a part of the results.
# Target: human ether-à-go-go-related gene (hERG) potassium channel (human, UniProt Q12809)
# Assay: primary screen, population patch clamp on CHO cells stably expressing hERG
# Sequence of human ether-à-go-go-related gene (hERG) potassium channel (Q12809 whole entry, looked up): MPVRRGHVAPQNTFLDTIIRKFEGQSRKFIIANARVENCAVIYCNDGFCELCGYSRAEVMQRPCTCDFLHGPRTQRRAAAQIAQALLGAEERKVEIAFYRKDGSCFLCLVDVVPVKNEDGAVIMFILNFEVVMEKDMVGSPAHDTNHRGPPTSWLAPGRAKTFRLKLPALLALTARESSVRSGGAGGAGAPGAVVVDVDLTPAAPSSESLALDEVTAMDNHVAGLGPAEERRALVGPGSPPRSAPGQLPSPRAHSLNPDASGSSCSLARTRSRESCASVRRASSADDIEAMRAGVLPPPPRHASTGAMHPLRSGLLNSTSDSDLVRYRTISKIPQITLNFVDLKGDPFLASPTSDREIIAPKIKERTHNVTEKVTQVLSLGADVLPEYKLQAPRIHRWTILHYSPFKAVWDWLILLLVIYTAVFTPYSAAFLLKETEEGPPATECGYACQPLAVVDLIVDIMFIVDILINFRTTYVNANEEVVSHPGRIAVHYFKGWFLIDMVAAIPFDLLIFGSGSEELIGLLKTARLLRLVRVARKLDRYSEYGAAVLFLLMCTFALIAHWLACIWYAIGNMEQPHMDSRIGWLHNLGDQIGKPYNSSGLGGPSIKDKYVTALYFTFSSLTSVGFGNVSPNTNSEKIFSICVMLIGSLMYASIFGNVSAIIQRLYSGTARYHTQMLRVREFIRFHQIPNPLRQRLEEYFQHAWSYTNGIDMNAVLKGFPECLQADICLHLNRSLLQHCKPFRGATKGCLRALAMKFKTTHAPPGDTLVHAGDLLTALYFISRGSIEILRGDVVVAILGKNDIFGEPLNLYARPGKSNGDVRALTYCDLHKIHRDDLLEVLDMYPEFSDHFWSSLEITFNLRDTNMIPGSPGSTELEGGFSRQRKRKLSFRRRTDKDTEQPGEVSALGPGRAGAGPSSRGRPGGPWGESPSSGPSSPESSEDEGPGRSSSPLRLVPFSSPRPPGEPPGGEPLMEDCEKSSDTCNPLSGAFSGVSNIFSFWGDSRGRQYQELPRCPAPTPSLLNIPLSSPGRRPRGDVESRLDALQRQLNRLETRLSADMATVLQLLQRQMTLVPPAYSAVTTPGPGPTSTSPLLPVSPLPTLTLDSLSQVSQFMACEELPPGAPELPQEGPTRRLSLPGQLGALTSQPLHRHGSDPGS
row,SMILES,"hERG current change (%, negative = inhibition) at 1uM"
1,Cn1nc(-c2ccc(Cl)cc2)cc1NC(=O)CC(C)(C)CC(=O)O,8.09%
2,COc1ccc(N(CC(=O)Nc2nccs2)S(=O)(=O)c2c(C)[nH]c(=O)[nH]c2=O)cc1,12.1%
3,O=C(NC1CC2CCCC(C1)N2C(=O)Nc1cccc(F)c1)C1CC1 (stereo not drawn),21.6%
4,O=S1(=O)C=C(N2CCOCC2)c2ccccc21,18.4%
5,CCN1CCN(CCC(=O)Nc2cccc(C)c2)CC1.Cl,9.56%
6,COC(=O)c1ccc(C(=O)OC)c(NC(=O)CSCc2ccc(Cl)cc2)c1,-1.69%
7,Cc1ccc(Cn2nc(C)c(C=O)c2Cl)cc1,7.51%
8,Cc1cc(C)c2c(ccc3cccc[n+]32)c1.[O-][Cl+3]([O-])([O-])[O-],6.35%
9,CCOc1ccc(NC(=O)COc2ccc(OC)cc2)cc1,13.4%
10,Cc1ccc(C2(C)NC(=O)N(CC(=O)NCCC3=CCCCC3)C2=O)cc1 (stereo not drawn),8.9%
11,CCc1cc2c(=O)n(CCC(C)C)c(=S)[nH]c2s1,12.1%
12,CCN(CC)c1ccc(NC(=O)COC(=O)CCC(=O)c2ccc(F)cc2)cc1,6.69%
13,CCCCOc1ccccc1N1CCN(CCCN2C(=O)C3CCCN3C2=O)CC1.Cl (stereo not drawn),-31.1%
14,O=c1c2ccccc2nc2n1C(CSc1ccc(Cl)cc1)CN2 (stereo not drawn),-1.65%
15,CCC(C)(C)C1CCC(NC(=O)N2CCN(c3ccccc3O)CC2)CC1 (stereo not drawn),9.74%
16,CC(NC(=O)Nn1cnnc1)(C(F)(F)F)C(F)(F)F,15.6%
17,Cn1cc(C(=O)NCc2ccccc2)c2ccccc21,3.35%
18,Cn1ncc(Br)c1C(=O)N1CCCCCC1,13.6%
19,CNc1oc(-c2cccs2)nc1S(=O)(=O)c1ccccc1,-4.28%

row,SMILES,"hERG current change (%, negative = inhibition) at 1uM"
1,CC(C)Cc1oc(C(=O)O)cc1CN.Cl,9.05%
2,O=C(Nc1ccc(Cc2ccncc2)cc1)c1cc(F)c(F)cc1Cl,-7.02%
3,O=C1C=C(Nc2ccc(Cl)cc2)C(=O)N1c1ccc(Cl)cc1,12.1%
4,Cc1sc2ncn(CC(=O)NCC3COc4ccccc4O3)c(=O)c2c1S(=O)(=O)N1CCOCC1 (stereo not drawn),4.87%
5,Nc1nc(CN2CCCCC2)cs1,-0.548%
6,Cc1nc(SCC(=O)NC(=O)NCc2ccccc2)nc(C)c1C,-1.47%
7,CCN1CCN(c2ccc(NC(=O)c3ccc(C#N)cc3F)cc2Cl)CC1,-39.3%
8,O=C(NC(=S)N1CCOCC1)c1cn(-c2ccccc2)nc1-c1ccccc1,7.42%
9,O=C(c1ccc(NS(=O)(=O)/C=C/c2ccccc2)cc1)N1CCCCC1,3.33%
10,CCOC(=O)c1nc(Nc2ccccc2CC)c2ccccc2n1,2.98%
11,c1cncc(C2Nc3ccccc3-c3nc4ccccc4n32)c1 (stereo not drawn),5.1%
12,O=C1C2C3C=CC(C3)C2C(=O)N1CN(Cc1ccccc1)CN1C(=O)C2C3C=CC(C3)C2C1=O (stereo not drawn),-0.815%
13,COc1cccc(C(=O)N[C@@H](C)C(=O)N2CCC3(CC2)NCCc2[nH]cnc23)c1,16.1%
14,Nc1ncc(-c2ccccc2)c(-c2ccc(OCc3ccccc3)cc2O)n1,3.68%
15,COC(=O)c1ccc(OCC(=O)Nc2ccccc2C(=O)NC2CC2)cc1,5.82%
16,CCC1CCCCN1P(=O)(c1ccc(C)o1)C(C)(C)C (stereo not drawn),-3.48%
17,Cc1c(C(=O)O)sc2nc(CSc3nnc(-c4ccc(F)cc4)n3C)[nH]c(=O)c12,8.36%
18,CC(OC(=O)c1cccc(-n2cnnn2)c1)C(=O)NC1(C#N)CCCCC1 (stereo not drawn),3.63%
19,CC(C)(C)C(=O)O/N=C(\N)c1ccc([N+](=O)[O-])s1,12.6%

row,SMILES,"hERG current change (%, negative = inhibition) at 1uM"
1,COc1ccccc1C(=O)NCC(=O)Nc1ccc2c(c1)CCC2,4.16%
2,Cc1sc(NC(=O)c2ccco2)c(C(Nc2ccccn2)c2ccccc2)c1C (stereo not drawn),7.96%
3,Cc1ccc(S(=O)(=O)NC(=O)c2ccc(-c3ccc(-c4ccccc4)cc3)o2)c(C)c1,-12.6%
4,COc1ccc(OCc2nnc3n2N=C(c2ccc(Br)cc2)CS3)cc1,3.32%
5,COc1ccc([N+](=O)[O-])cc1NC(=O)C(C)c1ccccc1 (stereo not drawn),6.25%
6,CCOc1ccc(C(=O)NCCO)cc1,9.43%
7,CCC(C)NC(=O)c1ccc(NC(=O)CC2SC(N3CCCCC3)=NC2=O)cc1 (stereo not drawn),16.5%
8,Cc1cc(C)cc(NC(=O)c2cccc(C(=O)Nc3cc(C)cc(C)c3)n2)c1,16.4%
9,O=C(Nc1ccccc1)N1CCSc2cc(Cl)ccc21,5.93%
10,CCCCn1c(N)c(-c2nc3ccccc3o2)c2c([N+](=O)[O-])nn(CC)c(=O)c21,-0.729%
11,CSc1ncc(CN2CCN(CCC(C)C)C(CCO)C2)cn1 (stereo not drawn),2.46%
12,NC(=O)C1(N2CCCCC2)CCN(CC(=O)Nc2ccccc2Sc2ccccc2)CC1,6.89%
13,COc1ccccc1CN1CCC(CNS(=O)(=O)c2cc(-c3onc(C)c3C)ccc2OC)CC1,-22.6%
14,COc1ccccc1NC(=O)/C(=C/c1cccc([N+](=O)[O-])c1)c1ccccc1,-1.44%
15,CC(=O)N1CCN(C2=Nc3cccc4cccc2c34)CC1,-5.79%
16,COc1ccc(OC)c(C(=O)Nc2ccc3[nH]ccc3c2)c1,11.4%
17,COc1ccc(CN2C(=O)C(CC(C)C)Nc3ncnc(N4CCN(c5ccccc5)CC4)c32)cc1.O=C(O)C(F)(F)F (stereo not drawn),8.77%
18,Cc1cccc(Nc2nc(NCCCN3CCOCC3)nc(N)c2[N+](=O)[O-])c1,8.65%
19,Fc1ccc(C2c3[nH]c4ccccc4c3CCN2Cc2ccoc2)cc1 (stereo not drawn),-5.21%
